Test results reported in PubChem BioAssay AID686979 (National Center for Advancing Translational Sciences (NCATS), 2013).
Out of some 420,000 compounds screened, about 50,000 (12%) were called active. The inconclusive results got no clear call from the source; some entries with a clear call stand among them for comparison. Calls come from the whole dose curve; as a rule, active = well fitted inhibition curve with a large enough effect; inconclusive = small, poorly fitted or top-dose-only effect; inactive = flat fitted curve, though single readings scatter. Potencies of inconclusive entries are left out as doubtful fits.

test: qHTS for Inhibitors of human tyrosyl-DNA phosphodiesterase 1 (TDP1): qHTS in cells in presence of CPT; details: chicken DT40 Tdp1-/-;hTDP1 cells + 20 nM CPT, ATP luminescence, 48 h; activity change, negative = growth inhibition: at 46.2 µM (top of the series) unless noted; note: nearly all actives have a fitted effect of over 55% in size
In short: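 Cell growth measured by CellTiter-Glo luminescence after a minimum 48 h, 37 C compound exposure with 20 nM CPT in Tdp1-knockout DT40 cells stably expressing hTDP1, seeded 400/well; qHTS titration format.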
% is set by controls: 0 for no effect and ±100 for the full control effect; potency is the fitted concentration of half-maximal effect; tags give direction and shape of the fitted curve.

Compound	Potency	activity change, negative = growth inhibition
COC(=O)C1CCN(Cc2cn(Cc3ccccc3)nc2-c2cc3ccccc3o2)CC1	inconclusive [inhibitor, single point]	
CCOc1ccc(CCNC(=O)C2CCN(c3ncnc4c3nc3n4CCCCC3)CC2)cc1	inconclusive [inhibitor, full curve, poor fit]	
O=C(NCCCCc1ccccc1)c1ccc(Br)cc1	inconclusive [inhibitor, single point]	
c1cn(-c2ncnc3ccc(-c4ccoc4)cc23)cn1	active: 18.4 µM	
CCOC(=O)[C@]12CCCC=C1N(Cc1cccc3ccccc13)C(=O)[C@H](CC(=O)NCCCN1CCCC1=O)C2	inconclusive [inhibitor, single point]	
Fc1ccccc1CSc1nncn1NCc1cccs1	inconclusive [inhibitor, single point]	
CCc1c(C)sc(NC(=O)c2ccc(Br)o2)c1C(=O)OC	inconclusive [inhibitor, single point]	
Cc1cccc(CCN2CCN=C2N(C)C)c1		inactive: -7.31%
OC[C@@H]1CN(Cc2ccc(Cl)cc2)C[C@H](n2cnc3c(NC4CCC4)ncnc32)O1	inconclusive [inhibitor, single point]	
O=C1CN(C(=O)c2ccc(S(=O)(=O)N3CCCC3)cc2)C(c2ccccc2)c2cc(F)ccc2N1 (stereo unspecified)	inconclusive [inhibitor, partial curve]	
COc1ccc(-n2nc3c(c2NC(=O)c2ccc4c(c2)OCO4)CS(=O)(=O)C3)cc1		inactive: -16%
CC12CC(O)C3C(CCC4=CC(=O)CCC43C)C1CCC2=CCO (stereo unspecified)	inconclusive [inhibitor, single point]	
CC/C(=C/c1ccccc1OC)c1cc(-c2ccccc2)cc2oc3ccccc3c12	inconclusive [inhibitor, single point]	
Cc1cc(C(=O)NCC2CCC3(CCN(Cc4ccc(-c5ccccc5)cc4)CC3)O2)n(C)n1 (stereo unspecified)	inconclusive [inhibitor, single point]	
CCn1nc(C)c(NS(=O)(=O)c2ccc(C)cc2)c1C	inconclusive [inhibitor, partial curve]	
CC1CCN(C(=O)Cn2nnc(-c3ccc(N)cc3)n2)CC1		inactive: -3.24%
COCC(=O)N1CCC2(CC1)CN(C(=O)Nc1ccc(OC)cc1)C2		inactive: 3.51%
N#Cc1c(-c2ccccc2)cc(-c2ccccc2)nc1SCC(O)CS(=O)(=O)Cc1ccc(Cl)cc1 (stereo unspecified)	active: 8.2 µM	
CC(=O)c1ccc(N2CCN(C(=O)c3cc(-c4ccncc4)nc4ccc(Br)cc34)CC2)cc1	active: 20.6 µM	
Cc1ccc(CN2CCNC(=O)C2CC(=O)NCc2csc(C(C)C)n2)cc1 (stereo unspecified)		inactive: -14.1%
CCOC(=O)[C@]12CCC=C1N(Cc1ccc(Cl)cc1Cl)C(=O)[C@H](CC(=O)N1CCOCC1)C2	inconclusive [inhibitor, single point]	
O=C(C[C@H]1C/C=C\CC[C@@H](Cc2ccc(F)cc2)C(=O)O[C@@H](c2ccccc2)CNC1=O)N[C@H](CO)Cc1ccccc1	active: 18.4 µM	
C#CCN(C[C@@H]1[C@@H](OC(=O)Nc2cccs2)[C@@H](OC(=O)Nc2cccs2)Cn2c(=O)ccc(=O)n21)S(=O)(=O)c1ccc(C)cc1	active: 2.91 µM	
COc1ccc(CCNC(=O)c2ccc(CS(=O)Cc3ccc(C)cc3)o2)cc1OC (stereo unspecified)	inconclusive [inhibitor, single point]	

Compound	Potency	activity change, negative = growth inhibition
COc1cccc(C(=O)N2CCN(Cc3ccco3)CC2)c1OC		inconclusive: -30.2% [inhibitor]
O=C(CSc1n[nH]c(-c2ccc(Br)cc2)n1)NC1CCCC1	inconclusive [inhibitor, single point]	
Cn1nnc2cc(C(=O)NCc3ccco3)ccc21		inactive: -5.93%
CC(NC(=O)CSc1nc2c(c(C(F)(F)F)n1)CCc1ccccc1-2)c1ccccc1 (stereo unspecified)	inconclusive [inhibitor, single point]	
Cc1ccc(S(=O)(=O)N2CCN(C(=O)CC(C)n3nc(C)c(Cl)c3C)CC2)cc1 (stereo unspecified)		inactive: -12.8%
O=C(Cn1ncc2c1-c1ccccc1OC2)N1CCN(Cc2ccccc2)CC1		inconclusive: -36.9% [inhibitor]
COC(=O)c1cc(C(=O)Nn2cnnc2)cc([N+](=O)[O-])c1		inactive: 0.82%
CC(C)c1cccc(C(C)C)c1NC(=O)CCN1C(=O)NC2(CCCC2)C1=O		inactive: -12.8%
OCCNC(=S)Nc1ccc(Cl)c(Cl)c1		inactive: 5.73%
C=C[C@@H]1c2cccc(C)c2N(S(=O)(=O)c2ccc(C)cc2)[C@H](c2ccc(OC(C)=O)cc2)C1(C#N)C#N	inconclusive [inhibitor, single point]	
Cc1ccc(Cl)cc1NC(=O)c1cc2ccccc2cc1O	active: 2.59 µM	
CCc1ccc([C@@H]2CC=C(C(=O)O)[C@H](c3ccccc3)N2S(=O)(=O)c2ccc(C)cc2)cc1		inactive: -5.81%
C/C(=N\S(=O)(=O)c1ccc(C)cc1)N1CCN(S(=O)(=O)c2ccccc2)C1C(C)C (stereo unspecified)	inconclusive [inhibitor, single point]	
C=CCNc1oc(Cc2cccc3ccccc23)nc1C#N		inactive: -3.95%
CN(CC(=O)Nc1sccc1C(N)=O)S(=O)(=O)c1ccc(Cl)cc1	inconclusive [inhibitor, single point]	
Cc1ccc(-n2nc(CN3CCOCC3)c(-c3ccccc3)c2N)cc1Cl	active: 29.1 µM	
O=C(NCc1ccc(N2CCCC2=O)cc1)c1ccc(F)cc1		inactive: 2%
CC(C)C[C@H]1COCCS(=O)(=O)N1Cc1ccc(Cl)c(Cl)c1	inconclusive [inhibitor, single point]	
CN1CCN(C(=O)N2c3ccccc3C=Cc3ccccc32)CC1		inactive: -22.1%
CCOC(=O)c1cc2c(=O)n3ccccc3nc2n(C(C)C)c1=NC(=O)C(C)(C)Oc1ccc(Cl)cc1		inactive: 0.08%
Cc1nc(-c2ccc(F)cc2)sc1CCNC(=O)Cc1ccc(F)cc1	inconclusive [inhibitor, single point]	
Cc1c(C(=O)NCCN(C)C)oc2c1-c1nn(Cc3cccc(Cl)c3)cc1CC2	inconclusive [inhibitor, single point]	
CC1=C(C(=O)N2CCCCCC2)CC(CC(=O)NCCCN(C)C)C(=O)N1CCCN1CCCC1=O (stereo unspecified)		inactive: 8%
O=C1c2ccccc2C(O)N1c1cccnc1 (stereo unspecified)		inactive: 18.4%

Compound	Potency	activity change, negative = growth inhibition
COc1ccc(N2C(=O)C(Cl)=C(Nc3ccccc3O)C2=O)cc1	inconclusive [inhibitor, partial curve]	
COc1ccc(/C=N/n2c(=O)[nH]c3c([nH]c4ccc(C)cc43)c2=O)cc1CN1CCOCC1	inconclusive [inhibitor, single point]	
O=C(CCC(=O)OCC(=O)c1ccc([N+](=O)[O-])cc1)Nc1ccccc1Cl	active: 18.4 µM	
Cc1cc(C)c2cc(C)c3nnc(SCC(=O)NCc4ccc5c(c4)OCO5)n3c2c1	inconclusive [inhibitor, single point]	
O=C(Nc1ccc(NC(=S)NC(=O)C(c2ccccc2)c2ccccc2)cc1)c1ccccc1	inconclusive [inhibitor, single point]	
N#C/C(=C\c1ccc(-c2nc3ccccc3s2)o1)C(N)=O	inconclusive [inhibitor, single point]	
Cc1cc(NC(=O)COC(=O)COc2cccc3c2OC(C)(C)C3)no1		inactive: -3.46%
O=C(Nc1ccc(Cl)c(Cl)c1)Nc1nccs1	active: 2.06 µM	
Nc1c2c(nc3ccc(Br)cc13)N(Cc1ccccc1)CC2	inconclusive [inhibitor, single point]	
O=C(NC1CCCC1)C(c1cccs1)N(C(=O)c1csnn1)c1ccccc1F (stereo unspecified)	inconclusive [inhibitor, partial curve]	
Cc1cc(C)c(NC(=O)Nc2ccc3c(c2)OCO3)c(C)c1	active: 11.6 µM	
O=C(CN1C(=O)C2CCCCC2C1=O)Nc1ccc(OC(F)F)c(Cl)c1 (stereo unspecified)		inactive: -11.9%
CC1=N/C(=C/c2cc(Br)cc(Br)c2O)C(=O)O1		inactive: -18.6%
Cc1cccc(S(=O)(=O)c2cn(Cc3ccccc3)c3cc(N4CCCCC4)c(F)cc3c2=O)c1	inconclusive [inhibitor, single point]	
CC(C)CN(C(=O)CSc1nc2ccccc2[nH]1)c1c(N)n(Cc2ccccc2)c(=O)[nH]c1=O	inconclusive [inhibitor, partial curve]	
COc1ccc(C(c2sc3ncnn3c2O)N2CCN(c3ccccc3F)CC2)cc1OC (stereo unspecified)	active: 11.6 µM	
Cc1cccc(NC(=O)C2CCN(C(=O)N3CCOc4ccccc43)CC2)c1C	inconclusive [inhibitor, single point]	
CCOC(=O)C1(CC2CCCCO2)CCN(Cc2nc(C(C)C)cs2)CC1 (stereo unspecified)	active: 16.4 µM	
OCCN(Cc1cccnc1)Cc1ccccn1		inconclusive: -30.6% [inhibitor]
O=C(OCC(=O)C12CC3CC(CC(C3)C1)C2)c1ccc(O)cc1	inconclusive [inhibitor, single point]	
COc1ccc(-c2nc3sc(CCNC(=O)c4ccc(Br)o4)c(C)n3n2)cc1	active: 16.4 µM	
O=C(NCCc1c[nH]c2ccccc12)c1ccc(F)cc1F	inconclusive [inhibitor, single point]	
Cc1ccn2c(CN(C)CCn3nc(C)cc3C)c(C(=O)N3CCCCCC3)nc2c1		inactive: -22.7%
